Test results reported in PubChem BioAssay AID504339 (National Center for Advancing Translational Sciences (NCATS), 2011).
Where “and” joins values, the source holds several entries; their conditions need not be identical. Equal entries are not always repeated. Screen size: about 390,000 compounds; about 17,000 (4.4%) were called active. Inconclusive means that the source gave no clear call. Such entries were picked first, then a sample of the others. Calls follow the shape of the dose curve; as a rule, active = well fitted inhibition curve with a large enough effect; inconclusive = small, poorly fitted or top-dose-only effect; inactive = no such curve, though single readings can be large or run the other way. A potency beside an inconclusive call is a rough fit, not a confirmed value.

What follows are compounds tested against Lysine-specific demethylase 4A (Homo sapiens) (UniProt O75164) (assay: qHTS Assay for Inhibitors of JMJD2A-Tudor Domain). Details: AlphaScreen JMJD2A-Tudor / H3K4me3 peptide binding; activity change, negative = inhibition: at 114 µM (top of the series).
UniProt O75164, sequence (O75164 whole entry, looked up, the tested form may be a part): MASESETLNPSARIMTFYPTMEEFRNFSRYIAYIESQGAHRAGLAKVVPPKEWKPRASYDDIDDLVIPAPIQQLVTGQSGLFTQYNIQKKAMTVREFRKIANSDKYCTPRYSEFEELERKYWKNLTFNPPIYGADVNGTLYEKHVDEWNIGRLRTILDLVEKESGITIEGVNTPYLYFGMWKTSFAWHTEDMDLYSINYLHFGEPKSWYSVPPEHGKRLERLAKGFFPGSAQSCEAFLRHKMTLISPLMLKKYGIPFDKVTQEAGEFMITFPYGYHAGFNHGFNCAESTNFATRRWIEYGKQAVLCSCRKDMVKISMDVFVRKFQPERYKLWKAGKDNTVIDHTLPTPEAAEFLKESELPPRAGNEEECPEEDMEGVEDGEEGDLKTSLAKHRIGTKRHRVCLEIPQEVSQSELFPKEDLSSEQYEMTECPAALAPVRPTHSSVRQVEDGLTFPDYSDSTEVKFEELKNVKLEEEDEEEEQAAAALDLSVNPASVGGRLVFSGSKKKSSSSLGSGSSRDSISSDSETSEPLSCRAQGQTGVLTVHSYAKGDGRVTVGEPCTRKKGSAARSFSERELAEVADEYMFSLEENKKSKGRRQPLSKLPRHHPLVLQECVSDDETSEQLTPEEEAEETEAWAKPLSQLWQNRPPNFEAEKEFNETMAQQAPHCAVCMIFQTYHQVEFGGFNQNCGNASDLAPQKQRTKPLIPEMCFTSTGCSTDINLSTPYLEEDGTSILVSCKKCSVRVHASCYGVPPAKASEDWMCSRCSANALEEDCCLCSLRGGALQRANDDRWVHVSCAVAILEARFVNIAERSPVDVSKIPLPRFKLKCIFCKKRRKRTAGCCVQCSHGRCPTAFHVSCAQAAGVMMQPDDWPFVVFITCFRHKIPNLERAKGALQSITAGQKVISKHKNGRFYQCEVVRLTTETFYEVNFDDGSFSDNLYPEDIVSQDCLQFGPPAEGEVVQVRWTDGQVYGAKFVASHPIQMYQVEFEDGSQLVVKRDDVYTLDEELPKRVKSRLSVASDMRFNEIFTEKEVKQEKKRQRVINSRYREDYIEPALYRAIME
% is scaled to controls: 0 for no effect and ±100 for the full control effect; potency is read from the fitted curve at half-maximal effect; tags tell the direction and shape of the fitted curve.
Also: nearly all actives have a fitted effect of over 50% in size.

Compound	Potency	activity change, negative = inhibition
O=C(NC(=S)Nc1cccc2cc(O)ccc12)c1ccccc1Br	inconclusive: 50.1 µM [inhibitor, partial curve]	
Cc1cccc(C)c1NC(=S)NCCCN1CCCC1=O		inactive: -9.12%
O=C(NCc1ccccc1)c1sc(=S)n2c1[nH]c(=O)c1ccccc12	inconclusive: 50.1 µM [inhibitor, partial curve]	
Cc1nc2ccccn2c1C(=O)NNC(=S)Nc1ccccc1		inactive: -11.9%
C=C1CCN([C@@H](C)C(=O)NCc2ccc(Cl)cc2)S(=O)(=O)c2ccccc21		inactive: -12.1%
CCN(CC)CCSc1nc2ccccc2n1Cc1ccccc1		inactive: -11.3%
COc1ccc(OC)c(-c2csc(NC(=O)c3ccc(F)cc3)n2)c1	inconclusive: 79.4 µM [inhibitor, partial curve]	
CCS(=O)(=O)N1CCN(C(C)CCc2ccccc2)CC1 (configuration not stated)	active: 8.91 µM	
COc1cc(OC)c2ccc(=O)oc2c1C(CC(=O)N1CCCC1)c1ccc(N(C)C)cc1 (configuration not stated)	inconclusive: 56.2 µM [inhibitor, partial curve] and inconclusive: 50.1 µM [inhibitor, partial curve]	
O=C(c1cccc(S(=O)(=O)N2CCCCC2)c1)N(CCc1ccccc1)Cc1ccccc1		inactive: -3.45%
CCOC(=O)c1c(C)[nH]c(C(=O)OCC(=O)N(CC)c2c(N)n(Cc3ccccc3)c(=O)[nH]c2=O)c1C		inactive: -7.72%
O=C(NCc1ccco1)c1ccc(COc2ccccc2Cl)cc1	active: 56.2 µM	
CCNC(=S)NNC(=O)CSc1nc2ccccc2[nH]1		inactive: -20.6%
CCOC(=O)N1CCN(c2c(NCCCN(CC)c3cccc(C)c3)c(=O)c2=O)CC1		inactive: -24.4%
N#Cc1ccc(C(=O)NC(=S)NC2CCCCC2)cc1	inconclusive: 11.2 µM [inhibitor, full curve, poor fit]	
Cc1cccnc1NC(=O)c1ccc2c(c1)OCO2		inactive: 4.83%
O=C1c2ccccc2C(=O)N1CCc1csc(-c2cccc(F)c2)n1		inactive: 37.8%
Fc1ccc(CNc2ccccn2)cc1		inactive: 8.84%
CCCCNC(=S)NCCCN(Cc1ccc(Cl)c(Cl)c1)c1ccc(Br)cn1		inactive: -29.9%
CCOC(=O)C1=C2c3ccc4ccccc4c3CC(C)(C)N2C(=O)C1=O		inactive: -13%
COc1ccc2[nH]c3c(C)c4cc[n+](C)cc4c(C)c3c2c1	inconclusive: 14.1 µM [inhibitor, partial curve, poor fit]	
Nc1nc(Nc2ccccc2F)sc1C(=O)c1ccc(Cl)cc1	inconclusive: 44.7 µM [inhibitor, partial curve]	
Clc1ccc(/C(Cc2nc3ccccc3[nH]2)=N\Nc2ccccc2)cc1	inconclusive: 44.7 µM [inhibitor, partial curve]	
COc1cc(Cl)c(C)cc1NC(=O)CSc1nnc(-c2ccco2)n1CC(C)C	inconclusive: 22.4 µM [inhibitor, full curve, poor fit]	

Compound	Potency	activity change, negative = inhibition
CCc1ccc(C2c3[nH]c4ccccc4c3CCN2C(=O)c2cc(C)nn2C)cc1 (configuration not stated)	inconclusive: 44.7 µM [inhibitor, partial curve]	
O=[N+]([O-])c1cc(Cl)ccc1N1CCOCC1		inactive: -22%
O=[N+]([O-])c1cccc(P(=O)(O)c2cccc([N+](=O)[O-])c2)c1	inconclusive: 89.1 µM [inhibitor, partial curve]	
Cc1cccc(N2CCN(S(=O)(=O)c3ccc4c(c3)CCN4C(=O)CCC(=O)O)CC2C)c1 (configuration not stated)	active: 56.2 µM	
CSc1ccc(C2NC(=O)c3c(sc4c3CCN(C)C4)N2)cc1 (configuration not stated)	inconclusive: 50.1 µM [inhibitor, partial curve]	
O=C1CS/C(=N/N=C\c2ccn[nH]2)N1		inactive: -20.6%
Cc1nc(NS(=O)(=O)c2ccccc2)sc1NC(=O)Nc1ccc(Cl)cc1	inconclusive: 89.1 µM [inhibitor, partial curve]	
COc1ccccc1/C=C1\CCCC2=C1Nc1nnnn1C2c1ccccc1OC (configuration not stated)	inconclusive: 35.5 µM [inhibitor, partial curve]	
O=C1c2ccccc2C(=O)c2c1cccc2N1CCOCC1	active: 35.5 µM	
Cc1cccc(/C=C(\c2nc3ccccc3[nH]2)S(=O)(=O)c2ccccc2)c1		inactive: -24.2%
COc1ccc(Cn2nnnc2CN2CCCCCC2)cc1		inactive: 2.41%
CCN(CC)C(=O)CSc1nc(-c2ccccc2F)nc2c1Cc1c(CO)cnc(C)c1O2		inactive: -17.9%
Cc1ccc2[nH]c3c(=S)nc[nH]c3c2c1	inconclusive: 89.1 µM [inhibitor, partial curve, poor fit]	
COc1ccc(C(=O)N/N=C/c2sc3ccccc3c2O)cc1	inconclusive: 79.4 µM [inhibitor, partial curve]	
Cc1noc(C)c1NC(=O)N1CCN(Cc2ccccc2)CC1	inconclusive: 89.1 µM [inhibitor, single point]	
CCOc1ccc(-c2nnc(-c3cccs3)o2)cc1OCC	inconclusive: 39.8 µM [inhibitor, single point]	
O=C(O)COc1ccc(C=C2SC(=S)N(c3ccccc3)C2=O)cc1		inactive: -35.2%
CN(C)c1cccc(C(=O)NCCCn2ccc3ccccc32)c1	inconclusive: 35.5 µM [inhibitor, partial curve]	
O=C(O)CNC(=O)CC1S/C(=N/N=C2\CSC(=O)N2)NC1=O (configuration not stated)	active: 7.08 µM	
CCOc1ccc2nc(NC(=O)C3CCN(c4cnccn4)CC3)sc2c1	inconclusive: 79.4 µM [inhibitor, partial curve]	
CCOC(=O)C(Cc1ccc(N)cc1)N1C(=O)c2ccccc2C1=O (configuration not stated)	inconclusive: 63.1 µM [inhibitor, partial curve, poor fit]	
CCn1c(=O)n(CC)c2cc(N3CCCC3)c(NC(=O)c3ccccc3C)cc21	inconclusive: 79.4 µM [inhibitor, partial curve]	
O=C(CN1CCN(c2ccc(O)cc2)CC1)Nc1cc([N+](=O)[O-])ccc1Cl	inconclusive: 44.7 µM [inhibitor, single point]	
CN(C(=O)CSc1nc2scc(-c3ccccc3)c2c(=O)[nH]1)c1ccccc1	inconclusive: 89.1 µM [inhibitor, partial curve]	

Compound	Potency	activity change, negative = inhibition
COc1ccccc1CNC(=O)CCCc1nnc2n(CC(C)C)c(=O)c3sccc3n12		inactive: 22.7%
COc1ccc(CN(Cc2ccccc2)C(=O)c2ccncc2)cc1COc1ccc(NC(C)=O)cc1	inconclusive: 89.1 µM [inhibitor, partial curve]	
CCOc1ccccc1-n1cnc2cc(C(=O)NCc3ccco3)ccc21	inconclusive: 79.4 µM [inhibitor, partial curve]	
CCOC(=O)CCCCCN(Cc1ccccc1)S(=O)(=O)c1ccc([N+](=O)[O-])cc1	inconclusive: 70.8 µM [inhibitor, single point]	
COc1cc(/C=N/NC(=O)c2cc(C34CC5CC(CC(C5)C3)C4)[nH]n2)ccc1O		inactive: -24% [at 11.4 µM]
Cc1ccc(CNS(=O)(=O)c2c(C(=O)N3CCCCCC3)c(C)n(C)c2C)cc1	inconclusive: 7.94 µM [inhibitor, full curve]	
CC(=O)/C(=N/Nc1ccc(Br)cc1)Sc1cccc2cccnc12	inconclusive: 14.1 µM [inhibitor, partial curve]	
CCc1ccccc1N/N=C(/C)c1c(O)cc(C)oc1=O	inconclusive: 22.4 µM [inhibitor, single point]	
CCOC(=O)c1c[nH]c(=S)n1C	active: 31.6 µM	
COc1ccc(-n2cnc3c(c2=N)C(c2cccc(OC)c2)c2c(ccc4ccccc24)O3)cc1 (configuration not stated)	inconclusive: 56.2 µM [inhibitor, partial curve]	
O=C(CSc1nnc(-c2ccccn2)o1)Nc1ccc(F)cc1	inconclusive: 56.2 µM [inhibitor, partial curve]	
O=C(NNC(=S)Nc1cccc(C(F)(F)F)c1)c1cccc(Cl)c1		inactive: -33.1%
CCCCc1ccc(NC(=O)CSc2nc(=O)n(CCN(CC)CC)c3c2CCCC3)cc1	inconclusive: 63.1 µM [inhibitor, partial curve, poor fit]	
COc1ccc(N2CCN(Cc3nc4c(c(=O)[nH]c(=O)n4C)n3Cc3cccc(Cl)c3)CC2)cc1	inconclusive: 22.4 µM [inhibitor, full curve]	
CC(=O)N1CCc2c(sc3c2c(=O)n(-c2ccccc2)c(=O)n3CC(=O)Nc2cccc(C)c2)C1		inactive: -18.5%
O=C(O)c1cn2c3c(ccc(Cl)c3c1=O)OCC2	inconclusive: 39.8 µM [inhibitor, single point]	
COc1ccccc1N1CCN(CC(O)COc2ccc3c(c2)OCO3)CC1 (configuration not stated)	inconclusive: 25.1 µM [inhibitor, single point]	
OCCNc1nc(Nc2ccccc2Oc2ccccc2)nc(N2CCCC2)n1	inconclusive: 50.1 µM [inhibitor, partial curve]	
O=C(O)c1cn(-c2ccc(F)cc2)c2cc(N3CCNCC3)c(F)cc2c1=O	active: 50.1 µM	
CC(C)n1c(-c2ccccc2F)n[nH]c1=S	active: 3.98 µM	
COc1ccc(/C=C(/C(=O)c2ccc(Cl)cc2Cl)n2cncn2)cc1		inactive: -31.8%
Cn1c(=O)c2c(nc(N3CCCCCC3)n2CC(O)COc2ccccc2)n(C)c1=O (configuration not stated)	inconclusive: 3.16 µM [inhibitor, single point]	
COc1ccc(/C=N/n2c(N)nc(-c3ccccc3)c2-c2ccccc2)cc1	inconclusive: 44.7 µM [inhibitor, partial curve]	
O=C(NCc1ccc(F)cc1)c1cccc2c1C(=O)c1ccc(N3CCOCC3)cc1S2(=O)=O	active: 79.4 µM	
